From PubChem BioAssay (Tox21)
“And” between values parts separate entries of the source, which are not always exact repeats. Equal entries are not always repeated. The shares of active, inactive and inconclusive entries below differ from those in the screen. Potencies of inconclusive entries are doubtful fits and often do not repeat. More than one record can exist for a structure, and the calls need not agree. The source made the active and inactive calls. Unless noted, calls come from the whole dose curve; as a rule, active = well fitted cell-killing curve with a large enough effect in the repeat runs; inconclusive = weak or mixed curves, or effect the other way; inactive = no such curve, though single readings can be large or run the other way. *1 amine or outer side, *2 acyl side, *3 side chain or, on linkers, in order; H or OH if unused. Where a SMILES comes first, the peptide text is derived from it. Bridges are numbered along the chain shown (N, C = ends). Roman numbers before positions name the chains, in order. [ ]: non-standard residue; d: D form. Actinocin(9to1) = Cc1c2oc3c(C)ccc(C(=O)[*:1])c3nc-2c(C(=O)[*:2])c(N)c1=O; NMeV = CN[C@H](C(=O)O)C(C)C; Sar = CNCC(=O)O
% is set by controls: 0 for no effect and ±100 for the full control effect; potency is the fitted concentration of half-maximal effect; tags give direction and shape of the fitted curve or compound fluorescence and quenching.

Target: Glucocorticoid receptor (Homo sapiens) (UniProt P04150)
Sequence of UniProt P04150 (P04150 whole entry, looked up): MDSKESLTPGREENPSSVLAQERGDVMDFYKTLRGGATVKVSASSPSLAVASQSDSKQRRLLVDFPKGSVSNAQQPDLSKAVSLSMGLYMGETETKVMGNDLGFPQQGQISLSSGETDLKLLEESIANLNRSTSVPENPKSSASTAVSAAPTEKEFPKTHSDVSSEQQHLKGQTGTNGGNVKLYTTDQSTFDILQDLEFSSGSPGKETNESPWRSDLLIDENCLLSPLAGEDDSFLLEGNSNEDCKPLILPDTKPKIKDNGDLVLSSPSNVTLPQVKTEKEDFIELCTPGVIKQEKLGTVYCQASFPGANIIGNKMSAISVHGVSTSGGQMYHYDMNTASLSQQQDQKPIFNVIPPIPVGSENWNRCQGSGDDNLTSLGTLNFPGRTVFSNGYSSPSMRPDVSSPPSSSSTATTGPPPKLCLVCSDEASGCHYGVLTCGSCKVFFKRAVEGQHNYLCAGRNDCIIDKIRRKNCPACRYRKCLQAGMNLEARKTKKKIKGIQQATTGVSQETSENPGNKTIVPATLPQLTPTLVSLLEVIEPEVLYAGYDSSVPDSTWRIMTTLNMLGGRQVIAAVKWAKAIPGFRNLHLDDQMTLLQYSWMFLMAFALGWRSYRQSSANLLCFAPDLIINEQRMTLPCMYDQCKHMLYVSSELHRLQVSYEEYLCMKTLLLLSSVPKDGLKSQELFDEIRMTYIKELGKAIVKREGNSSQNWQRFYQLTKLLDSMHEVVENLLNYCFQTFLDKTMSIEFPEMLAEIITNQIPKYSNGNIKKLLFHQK
Experiment: qHTS assay to identify small molecule antagonists of the glucocorticoid receptor (GR) signaling pathway (AID 720692; active = well fitted inhibition curve with a large enough effect in the signal ratio in the repeat runs, not every such curve was filed as active; inconclusive = weak or mixed curves, or effect the other way; inactive = no such curve, though single readings can be large or run the other way; the % refers to the signal ratio)
Conditions: GR-bla HeLa, beta-lactamase FRET ratio, dexamethasone-stimulated, 18 h; activity change, negative = inhibition: at 58.5 µM (top of the series) unless noted
Summary of the method: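 In a 1536-well cell format, compounds were added 4 h after seeding GR-bla HeLa cells, together with dexamethasone at 5 nM final; reporter activity was measured by FRET-substrate fluorescence following 18 h at 37 C.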
For `CCCOc1ccc2nc(NC(=O)OC)[nH]c2c1`, the Potency was inconclusive: 1.34 µM [activator, full curve]. For `Cc1c2oc3c(C)ccc(C(=O)N[C@@H]4C(=O)N[C@H](C(C)C)C(=O)N5CCC[C@H]5C(=O)N(C)CC(=O)N(C)[C@@H](C(C)C)C(=O)O[C@@H]4C)c3nc-2c(C(=O)N[C@@H]2C(=O)N[C@H](C(C)C)C(=O)N3CCC[C@H]3C(=O)N(C)CC(=O)N(C)[C@@H](C(C)C)C(=O)O[C@@H]2C)c(N)c1=O` (I: T[dV]P[Sar][NMeV] / II: T[dV]P[Sar][NMeV]; ester I:1-I:C, II:1-II:C; linker I:N-II:N via Actinocin(9to1)), the Potency was active: 134 nM and inconclusive: 19 nM [cytotoxic, full curve]. With `O=C(/C=C/c1ccccc1)OCCc1ccccc1` the activity change, negative = inhibition was inconclusive: 16.2%. In the case of `CCCCCCCCC(CCCCCC)C(=O)O` (centres undefined), the Potency is reported as active: 38.9 µM. In the case of `CC1(C)O[C@@H]2C[C@H]3[C@@H]4CCC5=CC(=O)C=C[C@]5(C)[C@@]4(F)[C@@H](O)C[C@]3(C)[C@]2(C(=O)CO)O1`, the Potency is reported as inconclusive: 16.9 nM [activator, full curve] and inconclusive: 3.9 nM [activator, full curve] and inconclusive: 4.4 nM [activator, full curve]. For `O=CC(=O)c1ccccc1`, the Potency was “inactive”. In the case of `Nc1ccccc1O`, the activity change, negative = inhibition is reported as inconclusive: -27.8%. With `O=C1c2ccccc2C(=O)C1(O)O` the Potency was inconclusive: 55.3 µM [inhibitor, single point]. With `CC1(CN2CCC(n3c(=O)[nH]c4ccccc43)CC2)OCc2ccccc2-n2cccc21` (centres undefined) the Potency was inconclusive: 26.8 µM [inhibitor]. In the case of `CCN1CCN(c2cc(-c3ccc(F)cc3)c3c(n2)CCCCCC3)CC1`, the Potency is reported as inconclusive: 23.9 µM [inhibitor, single point]. For `CCCCCCNC(=O)n1cc(F)c(=O)[nH]c1=O`, the activity change, negative = inhibition was inconclusive: 32.2% [activator]. For `Cc1ccc2c(Br)cc(Br)c(O)c2n1`, the Potency was active: 23.9 µM. For `CCCCC(CC)COP(=O)(O)O` (centres undefined), the Potency was active: 49.8 µM. In the case of `Cc1cc(C2CCCCC2)n(O)c(=O)c1`, the Potency is reported as inconclusive: 3.62 µM [full curve]. In the case of `COC(=O)Nc1nc2ccc(C(=O)c3ccccc3)cc2[nH]1`, the Potency is reported as inconclusive: 2.29 µM [activator, full curve]. In the case of `CC(=O)NC1(c2cccc(F)c2)CCN(CC[C@@]2(c3ccc(Cl)c(Cl)c3)CN(c3ccccc3)C(=O)CO2)CC1`, the Potency is reported as inconclusive: 43.8 µM [inhibitor]. With `C=CC(=O)OCCn1c(=O)n(CCOC(=O)C=C)c(=O)n(CCOC(=O)C=C)c1=O` the Potency was inconclusive: 38.9 µM [cytotoxic, partial curve]. With `CCCCCCCC[P+](CCCCCCCC)(CCCCCCCC)CCCCCCCC` the Potency was inconclusive: 10.9 µM [cytotoxic, full curve]. With `CCCCCCCCOc1ccc(C(=O)O)cc1` the Potency was inconclusive: 61 µM [cytotoxic, partial curve, poor fit]. In the case of `CN1C(=O)N(c2ccccc2Br)Cc2cnc(Nc3ccc4c(c3)OCC(CO)O4)nc21` (centres undefined), the Potency is reported as inconclusive: 6.92 µM [cytotoxic, full curve]. For `CN1C(=O)c2ccccc2C1=O`, the activity change, negative = inhibition was inconclusive: -16.4%. With `O=C1OC2(c3cc(Br)c(O)c(Br)c3Oc3c2cc(Br)c(O)c3Br)c2c(Cl)c(Cl)c(Cl)c(Cl)c21` the Potency was active: 49.1 µM. In the case of `O=C(/C=C/c1ccccc1)OCc1ccccc1`, the activity change, negative = inhibition is reported as inconclusive: 4.55%. In the case of `NC1[C@H]2CN(c3nc4c(cc3F)c(=O)c(C(=O)O)cn4-c3ccc(F)cc3F)C[C@@H]12` (some centres undefined), the Potency is reported as “inactive”.

Tested on: not listed separately
Experiment: qHTS assay to identify small molecule antagonists of the glucocorticoid receptor (GR) signaling pathway - cell viability counter screen (AID 720693); note: nearly all actives have a fitted effect of over 55% in size
Conditions: GR-bla HeLa viability, CellTiter-Glo luminescence, 18 h, with 5 nM dexamethasone present; viability change, negative = cytotoxic: at 58.5 µM (top of the series)
In the case of `Cc1c2oc3c(C)ccc(C(=O)N[C@@H]4C(=O)N[C@H](C(C)C)C(=O)N5CCC[C@H]5C(=O)N(C)CC(=O)N(C)[C@@H](C(C)C)C(=O)O[C@@H]4C)c3nc-2c(C(=O)N[C@@H]2C(=O)N[C@H](C(C)C)C(=O)N3CCC[C@H]3C(=O)N(C)CC(=O)N(C)[C@@H](C(C)C)C(=O)O[C@@H]2C)c(N)c1=O` (I: T[dV]P[Sar][NMeV] / II: T[dV]P[Sar][NMeV]; ester I:1-I:C, II:1-II:C; linker I:N-II:N via Actinocin(9to1)), the Potency is reported as active: 239 nM and active: 9.5 nM. For `O=C(/C=C/c1ccccc1)OCCc1ccccc1`, the Potency was “inactive”. In the case of `Cc1cc(O)ccc1O`, the Potency is reported as inconclusive: 62.3 µM [single point]. With `CCCCCCCCC(CCCCCC)C(=O)O` (centres undefined) the Potency was inconclusive: 54.9 µM [cytotoxic]. In the case of `O=C1c2ccccc2C(=O)C1(O)O`, the Potency is reported as inconclusive: 49.2 µM [cytotoxic, single point]. For `CC1(CN2CCC(n3c(=O)[nH]c4ccccc43)CC2)OCc2ccccc2-n2cccc21` (centres undefined), the Potency was inconclusive: 19 µM [cytotoxic, partial curve, poor fit]. In the case of `CCN1CCN(c2cc(-c3ccc(F)cc3)c3c(n2)CCCCCC3)CC1`, the Potency is reported as inconclusive: 26.8 µM [cytotoxic, single point]. In the case of `O=C1OC(c2ccc(O)cc2)(c2ccc(O)cc2)c2ccccc21`, the Potency is reported as inconclusive: 54.6 µM [cytotoxic, single point]. In the case of `COC(=O)Nc1nc2ccc(C(=O)c3ccccc3)cc2[nH]1`, the Potency is reported as inconclusive: 1.29 µM [rising, partial curve]. For `CC(=O)NC1(c2cccc(F)c2)CCN(CC[C@@]2(c3ccc(Cl)c(Cl)c3)CN(c3ccccc3)C(=O)CO2)CC1`, the Potency was inconclusive: 49.1 µM [cytotoxic, single point]. With `CC#C[C@]1(O)CC[C@H]2[C@@H]3CCC4=CC(=O)CCC4=C3[C@@H](c3ccc(N(C)C)cc3)C[C@@]21C` the Potency was active: 5.35 µM and inconclusive: 61.6 µM [cytotoxic, single point]. For `CCCCCCCC[P+](CCCCCCCC)(CCCCCCCC)CCCCCCCC`, the Potency was active: 6.13 µM. With `CCCCCCCCOc1ccc(C(=O)O)cc1` the Potency was inconclusive: 54.3 µM [cytotoxic, single point]. For `CN1C(=O)N(c2ccccc2Br)Cc2cnc(Nc3ccc4c(c3)OCC(CO)O4)nc21` (centres undefined), the Potency was active: 13.8 µM. With `S=c1nc[nH]c2nc[nH]c12` the Potency was inconclusive: 0.239 µM [cytotoxic, full curve].
